Hit rate of the full screen: of about 50,000 compounds, about 800 (1.6%) showed an effect of 50% or more. The list shows a part of the results.
Target: Bcl-2-like protein 10 (Homo sapiens) (UniProt Q9HD36)
Test: Phenotype converters, Bcl-B/TR3 peptide binding displacement, primary biochemical FP (AID 1240);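 further: 0% = Bcl-B with tracer peptide and DMSO and 100% = tracer peptide lacking Bcl-B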
Conditions: GST-Bcl-B / FITC-TR3 peptide fluorescence polarization; stronger effect = higher value; compound at 3.75 mg/L

UniProt Q9HD36, sequence (Q9HD36 whole entry, looked up): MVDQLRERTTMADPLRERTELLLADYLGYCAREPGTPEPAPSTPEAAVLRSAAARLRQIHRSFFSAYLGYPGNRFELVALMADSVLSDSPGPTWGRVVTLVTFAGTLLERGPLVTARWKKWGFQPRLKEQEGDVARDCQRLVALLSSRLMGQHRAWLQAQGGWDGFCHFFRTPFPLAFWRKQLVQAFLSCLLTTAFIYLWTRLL

SMILES | displacement [%]
COc1cc(OC)c(OC)cc1/C=N/NC(=O)CCc1c(C)n[nH]c1C | -4
C/C(=N\Nc1nc(C)cc(=O)[nH]1)c1ccccc1 | -15.2
CCN(CC)S(=O)(=O)c1ccc(OC)c(OC)c1 | -4.4
Cc1ccccc1NC(=O)CSc1ncccn1 | -5.6
CCOc1cc(C2NC(=S)NC(C)=C2C(=O)Nc2ccc(C)cc2)ccc1O (stereo not drawn) | 2.6
CC(Cc1ccccc1)N=C1NS(=O)(=O)c2ccccc21 (stereo not drawn) | -2.2
CCN(CC)c1ccc(/C=C2/C=C(c3ccc(C)cc3)OC2=O)cc1 | 6.1
O=C(Nc1ccc(Cl)c(Cl)c1)C1C2/C=C\CCCCC21 (stereo not drawn) | -12.8
O=C(Nc1cccnc1)c1cc2ccccc2o1 | 8.9
CC1=C(C(=O)OC2CCCCCC2)C(c2ccc3c(c2)OCO3)C2=C(CCCC2=O)N1 (stereo not drawn) | -4.9
O=c1[nH]c(/C=C/c2ccc(N3CCOCC3)c([N+](=O)[O-])c2)c([N+](=O)[O-])c(=O)[nH]1 | 2.1
O=C(Cc1ccccc1)Nc1ccc(-c2nc3cc(Cl)ccc3o2)cc1 | -2.5
Cc1cc(N2C(=O)NC(=O)/C(=C\c3ccsc3)C2=O)ccc1Br | -9.6
COc1ccccc1CNC(=O)Cc1ccccc1[N+](=O)[O-] | -1.7
O=C(NCCc1ccccc1)C(=O)Nc1cccc(Cl)c1Cl | 8.1
COC(=O)c1cccc(NC(=O)C23CC4CC(C2)CC(C(=O)Nc2cccc(C(=O)OC)c2)(C4)C3)c1 | 13.4
Cc1c(Cl)cccc1NC(=O)/C(C#N)=C/c1ccc(N2CCOCC2)o1 | -99.2
CCOc1ccc(-c2csc(/C(C#N)=C/c3ccco3)n2)cc1 | -6
CC(C)(C)N1C(=O)c2ccc(C(=O)Nc3ccc(C(=O)O)cc3)cc2C1=O | 11.6
O=C(COc1ccccc1[N+](=O)[O-])Nc1ccc2oc(-c3ccccc3Br)nc2c1 | 5.2
Cc1c(Cc2ccccc2)c(-n2ccnc2)n2c(nc3ccccc32)c1C#N | 5.2
COc1cccc(/C=C2\SC(=O)N(c3ccc(Cl)cc3)C2=O)c1O | -2.1

SMILES | displacement [%]
COc1ccc(-c2nc3cc(NC(C)=O)ccc3o2)cc1 | 0.3
COc1ccc(-c2nn(-c3ccccc3)cc2/C=C/C(=O)O)cc1 | 14.2
O=C(c1ccccc1)N1CC(=O)N2CCc3ccccc3C2C1 (stereo not drawn) | 1
O=C(c1ccccc1)N1CCN(c2nc(-c3ccccc3)c3cc(Cl)ccc3n2)CC1 | 10.6
COc1ccc2c(c1)-c1c(sn(-c3cc(C)cc(C)c3)c1=S)C(C)(C)N2 | -4.3
O=Cc1ccc(/C=C2/SC(=S)N(c3cccc(Cl)c3)C2=O)cc1 | 1.3
CCOc1ccc(NC(=O)CN(c2ccc(C(C)C)cc2)S(=O)(=O)c2ccccc2)cc1 | 0.3
O=C(Nc1ccc(NC(=O)c2ccc(-c3ccc(Cl)cc3Cl)o2)cc1)c1ccccc1 | 83.5
O=C1CC(c2ccc(Cl)cc2)c2ccc3ccccc3c2N1 (stereo not drawn) | 7.9
COc1ccc(N2CC(C(=O)N/N=C/c3cccs3)CC2=O)cc1 (stereo not drawn) | 65
COc1ccc(/C=C2/NC(=S)NC2=O)cc1OCc1ccc(Cl)cc1Cl | 4.4
O=C(c1sc2ccccc2c1Cl)N1CCc2ccccc2C1 | 14.2
CC(C)CN1C(=O)/C(=C/c2ccc(F)cc2)SC1=S | 19.6
CC1CCc2c(sc(N)c2C(=O)Nc2ccccc2Cl)C1 (stereo not drawn) | -31.1
O=C1CC(=O)N(c2ccc3ccccc3c2)C(=S)N1 | -9.9
CCOC(=O)c1cnc2c(ccc3ccccc32)c1Cl | 11
O=C1/C(=C/c2cccc3ccccc23)SC(=S)N1Cc1ccco1 | 79.2
O=C(NCC(c1ccccc1)c1ccccc1)Nc1ccc(Cl)cc1 | 2.6
CCN1CCN(Cc2c(C)[nH]c3c(Cl)cccc3c2=O)CC1 | -5.8
NNC(=O)CN1C(CN2CCOCC2)=Nc2ccc(Br)cc2C1c1ccccc1 (stereo not drawn) | -14.1
Cc1ccc(CN2CCN(C3CCCCC3)CC2)cc1 | -11.3
O=C(NCC1CCCO1)c1ccc(Cl)cc1Cl (stereo not drawn) | -6

SMILES | displacement [%]
COc1ccc(CCNC(=S)Nc2ccc(OC)cc2)cc1 | -9.1
COc1ccccc1OCC(=O)NC(C)C(=O)O (stereo not drawn) | 9.1
COC(=O)C1=C(C)NC2=C(C(=O)c3ccccc32)C1c1cccs1 (stereo not drawn) | 15
Cc1ccc(C(=O)Nc2sc3c(c2C(=O)N2CCC(C(N)=O)CC2)CCCC3)cc1 | -1.1
O=C(Nc1ccc(F)cc1F)c1cc2ccccc2oc1=O | -7.9
CCOC(=O)C(C)Oc1ccc2c(oc(=O)c3ccccc32)c1C (stereo not drawn) | 13.7
CC(NS(=O)(=O)c1ccc(F)cc1)C1C2CC3CC(C2)CC1C3 (stereo not drawn) | 3.6
Cc1cc(Br)ccc1N1C(=O)CCC1=O | -3.8
CCC1C(=O)N=C(SCC(=O)Nc2ccccn2)NC1=O (stereo not drawn) | 11
CC1=C(C(=O)Nc2ccc(Br)cc2)C(c2ccc([N+](=O)[O-])cc2)NC(=S)N1 (stereo not drawn) | 11.2
CCCOc1ccc(N2C(=O)CC(Nc3ccc(C(=O)OC)cc3)C2=O)cc1 (stereo not drawn) | 7.8
O=C(CSc1nc2ccc(N3C(=O)c4ccccc4C3=O)cc2s1)Nc1cccc([N+](=O)[O-])c1 | -99.9
NN1C(=O)/C(=C/c2ccc(Cl)cc2)N=C1c1ccccc1 | -5.3
CC(C)C(=O)Nc1ccc(O)c(-c2nc3ccccc3s2)c1 | -4.4
CCN1C(=O)/C(=C\c2ccc(-c3ccccc3C(=O)OC)o2)SC1=S | 5.6
CC1=NN(C(=O)COc2ccccc2)C(O)(C(F)(F)F)C1 (stereo not drawn) | -4
Cc1ccc(N=Cc2cccc([N+](=O)[O-])c2)cc1F | -7.8
O=C(NC(CO)C(O)c1ccc([N+](=O)[O-])cc1)c1ccc2ccccc2n1 (stereo not drawn) | 13.7
O=C1CC(N2CCN(CCO)CC2)C(=O)N1c1ccc(Cl)cc1 (stereo not drawn) | 4.5
O=C(CSc1nnnn1-c1ccccc1)c1ccc2c(c1)Cc1ccccc1-2 | -26.7
O=C(Nc1ccc(Oc2ccc(NC(=O)C(F)(F)F)cc2)cc1)C(F)(F)F | 4.2
CCOC(=O)C(CCCCCOc1cc(C)ccc1C)C(=O)OCC | 10.8

SMILES | displacement [%]
O=C1NC(=Nc2ccc(O)cc2)S/C1=C\c1ccc(F)cc1 | 7.7
NS(=O)(=O)c1ccc(N2N=C(/C=C/c3ccc(F)cc3)CC2c2ccc(F)cc2)cc1 (stereo not drawn) | -57.8
COc1ccc(Br)cc1C(=O)Nc1c(C)ccc2nsnc12 | -20.5
O=C1/C(=C/c2ccc(Br)cc2)SC(=S)N1/N=C/c1ccc(Br)cc1 | 39.3
COc1ccc(C(NC(=O)c2ccccc2)c2ccc(OC)cc2)cc1 | -3
CCn1cc(/C=C(/C#N)C(=O)Nc2ccc(Cl)cc2)c2ccccc21 | 6.9
Cc1ccc(C(=O)NC2CC(C)(C)NC(C)(C)C2)cc1[N+](=O)[O-] | -3.2
Cc1cc(C(=O)NC2CCSC2=O)ccc1[N+](=O)[O-] (stereo not drawn) | -2.7
COc1cc(NC(=O)c2nn3c(c2Br)NC(c2cccs2)CC3C(F)(F)F)c(OC)cc1Cl (stereo not drawn) | 6.7
Cc1ccc(S(=O)(=O)N/N=C/C=C/c2ccc(N(C)C)cc2)cc1[N+](=O)[O-] | -15.4
COc1cc(C(=O)NC(NC(=S)Nc2ccc(Cl)cc2Cl)C(Cl)(Cl)Cl)cc(OC)c1OC (stereo not drawn) | -2.4
O=C(Nc1ccc(F)c([N+](=O)[O-])c1)c1cccc2ccccc12 | -4.6
O=S(=O)(c1ccc(Br)cc1)N1CCN(c2ccccc2)CC1 | 13.8
CC(NC(=O)COc1ccccc1O)C1CC2CCC1C2 (stereo not drawn) | 9.7
OCC(CO)C(c1ccccc1)c1ccccc1 | 15.1
O=C(NCCCn1ccnc1)NC1CCCCC1 | -1.6
CCOC(=O)/C(=C\Nc1ccc(F)c(F)c1F)[N+](=O)[O-] | 15.4
Cc1c(Cl)cccc1NC(=O)c1cc2c(C)nn(-c3ccccc3)c2s1 | -0.3
CCC1=NN2C(=N)/C(=C/c3cc(Br)c(OCc4ccc(F)cc4)c(OC)c3)C(=O)N=C2S1 | 12.4
COc1cc(Br)cc(/C=C2/C(=O)NN(c3ccccc3)C2=O)c1O | 33.3
O=C(NNc1ccccc1)C(O)(Cc1ccccc1)Cc1ccccc1 | -9.7
COc1ccc(C2CC(=O)C3=C(C2)Nc2ccccc2NC3c2ccccc2OCc2ccccc2)cc1OC (stereo not drawn) | -17

SMILES | displacement [%]
Cc1ccc(NC(=O)c2ccc([N+](=O)[O-])o2)cc1C | -2.7
O=C1CC(N2CCN(C3CC(=O)N(CCc4ccccc4)C3=O)CC2)C(=O)N1CCc1ccccc1 (stereo not drawn) | 2.8
O=C1C2C3C=CC(C4CC34)C2C(=O)N1Cc1ccc(F)cc1 (stereo not drawn) | -8.1
CCCOc1ccc(Br)cc1/C=C(/C#N)c1nc2ccc(C)cc2[nH]1 | 69.3
O=c1nc2cc3[nH]c4c(=O)c5ccccc5c4[nH]c3cc2n1 | 23.5
O=C(Oc1c(Br)cc(Br)cc1/C=N/NC(=O)c1ccccn1)c1ccc2c(c1)OCO2 | 47.9
Cc1ccc(C)c(COc2ccc3c4c(c(=O)oc3c2C)CCC4)c1 | 10.1
Cc1cccc(OCC(=O)Nc2cccc(C(=O)O)c2)c1C | 16.8
COc1ccc(OC)c(NC(=S)NC(NC(=O)c2cccc(I)c2)C(Cl)(Cl)Cl)c1 (stereo not drawn) | 0
O=C(CSc1nnc(-c2ccco2)o1)Nc1ccc(F)cc1 | -11.2
O=C1C(=O)N(c2cccc(Cl)c2)C(c2ccccc2)/C1=C(\O)c1ccccc1 (stereo not drawn) | 1
O=C(Nc1ccc(S(=O)(=O)N2CCCCCC2)cc1)c1ccc(Cl)cc1Cl | 2.9
COc1cccc(NC(=O)C(=O)NCCN(C)C)c1 | 4
CCCOc1ccccc1/C=C1/C(=O)NN(c2ccc(C(=O)OCC)cc2)C1=O | -1.3
NS(=O)(=O)c1ccc(CNC(=O)c2ccc(Cl)cc2[N+](=O)[O-])cc1 | -0.6
COc1cc(C=C2C(=O)NC(=O)NC2=O)ccc1OCCOc1ccc([N+](=O)[O-])cc1 | 15.5
COc1ccc(C(=O)Nc2ccc3oc(-c4cc(Cl)c(OC)c(Cl)c4)nc3c2)cc1OC | -9.3
COc1ccc(-n2cnc3sc(C)c(C)c3c2=O)cc1 | 0.9
O=[N+]([O-])c1cc(C=Nc2cccc3nsnc23)c(O)c2ccccc12 | -1
COc1ccc(/C=C(\NC(=O)c2ccccc2)C(=O)NN)cc1OC | -10.6

Source: PubChem BioAssay AID1240 (Sanford-Burnham Center for Chemical Genomics, 2008)
